Among all 390,000 compounds or so, about 17,000 (4.4%) were called active. This list was built around the results that the source calls inconclusive (neither active nor inactive); the mix of calls is not that of the screen. Calls come from the whole dose curve; as a rule, active = well fitted inhibition curve with a large enough effect; inconclusive = small, poorly fitted or top-dose-only effect; inactive = no such curve, though single readings can be large or run the other way. Where the call is inconclusive, the potency comes from a doubtful curve fit. Some compounds were tested as several samples or in several runs, with calls that do not always agree.
Target: Lysine-specific demethylase 4A (Homo sapiens) (UniProt O75164)
UniProt O75164, sequence (O75164 whole entry, looked up, the tested form may be a part): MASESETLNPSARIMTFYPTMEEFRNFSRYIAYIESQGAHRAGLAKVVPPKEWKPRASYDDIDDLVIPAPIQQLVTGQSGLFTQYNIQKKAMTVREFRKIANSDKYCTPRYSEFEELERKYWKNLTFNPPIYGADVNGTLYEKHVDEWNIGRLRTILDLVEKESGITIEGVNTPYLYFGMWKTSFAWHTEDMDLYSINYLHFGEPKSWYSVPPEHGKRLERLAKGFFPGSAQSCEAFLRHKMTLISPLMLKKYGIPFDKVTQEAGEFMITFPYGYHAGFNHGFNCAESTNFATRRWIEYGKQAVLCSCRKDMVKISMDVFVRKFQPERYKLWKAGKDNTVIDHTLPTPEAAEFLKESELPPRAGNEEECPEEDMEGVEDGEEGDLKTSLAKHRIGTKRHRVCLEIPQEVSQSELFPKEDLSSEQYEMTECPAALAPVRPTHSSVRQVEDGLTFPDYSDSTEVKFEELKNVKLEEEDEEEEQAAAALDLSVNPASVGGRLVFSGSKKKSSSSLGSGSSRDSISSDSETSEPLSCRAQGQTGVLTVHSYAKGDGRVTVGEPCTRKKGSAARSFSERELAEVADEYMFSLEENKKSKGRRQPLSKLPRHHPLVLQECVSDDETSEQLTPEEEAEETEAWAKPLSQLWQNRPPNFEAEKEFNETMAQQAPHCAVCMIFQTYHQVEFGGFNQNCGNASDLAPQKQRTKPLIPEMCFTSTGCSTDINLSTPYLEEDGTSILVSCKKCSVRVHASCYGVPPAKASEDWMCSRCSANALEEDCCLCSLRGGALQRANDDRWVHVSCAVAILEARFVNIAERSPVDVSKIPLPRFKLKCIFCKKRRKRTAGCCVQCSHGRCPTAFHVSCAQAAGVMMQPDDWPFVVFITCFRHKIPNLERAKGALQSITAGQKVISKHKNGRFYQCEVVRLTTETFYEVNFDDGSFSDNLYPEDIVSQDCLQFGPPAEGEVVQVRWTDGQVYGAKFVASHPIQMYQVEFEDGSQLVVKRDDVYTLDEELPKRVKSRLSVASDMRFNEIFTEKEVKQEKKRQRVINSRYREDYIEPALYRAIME
Test: qHTS Assay for Inhibitors of JMJD2A-Tudor Domain; note: nearly all actives have a fitted effect of over 50% in size
Conditions: AlphaScreen JMJD2A-Tudor / H3K4me3 peptide binding; series mostly up to 114 µM
% is set by controls: 0 for no effect and ±100 for the full control effect; potency is the fitted concentration of half-maximal effect; tags give direction and shape of the fitted curve.

Potency, inconclusive:
O=c1[nH]nc(-c2n[nH]c(=O)o2)o1 89.1 µM [inhibitor, single point]
CCNc1c2c(nc3ccccc13)CC(C)(C)CC2=O 0.891 µM [inhibitor, full curve, poor fit]
O=S(=O)(Nc1ccc(Nc2ccccc2)cc1)c1ccc(F)cc1 50.1 µM [inhibitor, partial curve]
COc1ccc(C2C(C(=O)NCc3ccccn3)c3cc(OC)c(OC)cc3C(=O)N2C)cc1 (configuration not stated) 100 µM [inhibitor, single point]
Cc1[nH]c2ccc(C(=O)NCCCN(C)C3CCCCC3)cc2c1C 79.4 µM [inhibitor, partial curve]
O=C1N/C(=C\c2ccccc2)C(O)=C1C=NCc1ccccc1 100 µM [inhibitor, single point]
CC1CCN(C(=O)C2c3ccccc3C(=O)N3CCc4ccccc4C23)CC1 (configuration not stated) 100 µM [inhibitor, single point]
O=C1Nc2ccccc2/C1=N\c1sc2c(c1C(=O)Nc1ccccc1)CCCC2 63.1 µM [inhibitor, partial curve]
NC(N)=N/N=C/c1ccc2cccc(OCc3ccccc3)c2n1 56.2 µM [inhibitor, partial curve]
CC1CC(C)CN(C(=S)SCc2nc(N)nc(Nc3ccccc3)n2)C1 (configuration not stated) 39.8 µM [inhibitor, partial curve, poor fit]
O=C(O)CNS(=O)(=O)c1cc(Cl)c(Cl)cc1Cl 28.2 µM [inhibitor, partial curve]
CCCCNc1c(-c2ccc(Sc3ccc(OC)cc3)cc2)nc2cc(C)ccn12 39.8 µM [inhibitor, partial curve, poor fit]
Cc1ccc(NC(=O)NC2CCN(S(=O)(=O)c3ccc(F)cc3)CC2)cc1 89.1 µM [inhibitor, single point]
O=C(Nc1ccc(F)c(Cl)c1)C1CCN(S(=O)(=O)c2ccc3c(c2)CCCN3C(=O)C2CCC2)CC1 4.47 µM [inhibitor, single point]
CC(C)(C)CC(C)(C)N=C1Nc2cc(Cl)c(Cl)cc2NC12C[C@H]1CCC(=O)N3CC[C@@H](C2)[C@@H]13 (some centres not stated) 28.2 µM [inhibitor, partial curve]
Oc1ccc(Br)cc1/C=N/N1CCN(Cc2ccccc2)CC1 79.4 µM [inhibitor, partial curve]
O=C(O)CN1C(=O)/C(=C\c2cc(Br)ccc2OCc2ccc(F)cc2)SC1=S 39.8 µM [inhibitor, partial curve]
CC(C)(O)CCCC(C)(O)c1ccc(C(=O)O)cc1O (configuration not stated) 89.1 µM [inhibitor, partial curve]
CCN(CC)c1ccc(CNS(=O)(=O)c2cc3c(cc2C)NC(=O)CO3)cc1 63.1 µM [inhibitor, partial curve]
Cc1ccc(Cn2cccc2/C=N/NC(=S)Nc2ccc(C)cc2)cc1 12.6 µM [inhibitor, full curve, poor fit]
CC1CCN(C(=O)CSc2nnc(Cc3cccn3C)n2CCc2ccccc2)CC1 50.1 µM [inhibitor, partial curve]
COc1cccc(/C=N/NC(=O)c2c(-c3ccccc3)noc2C)c1O 79.4 µM [inhibitor, single point]
O=C(/C=C/c1ccco1)NC(=S)Nc1cc(-c2nc3ccccc3s2)ccc1Cl 89.1 µM [inhibitor, single point]
CC1(OC(=O)C2CCCC2)C(=O)C=C2C=C(c3ccsc3)N(c3ccccc3)C=C2C1=O (configuration not stated) 50.1 µM [inhibitor, partial curve]

Potency, inactive:
O=C(/C=C/c1ccco1)N1CCN(c2ncccn2)CC1
Cc1nc(-c2ccc(S(=O)(=O)NCc3ccc(F)cc3)cc2)co1
O=C(CN1CCCC1)OCCCc1ccccc1
CCOc1ccc(S(=O)(=O)NCc2ccncc2)cc1NC(=O)c1ccccc1
O=C(Cn1cc(S(=O)(=O)c2ccccc2)c(=O)c2cc3c(cc21)OCO3)Nc1ccccc1
CC(=O)C[C@@H](O)CC(=O)[C@@H]1OC(=O)CCCCCCc2ccccc21
O=C(CN1C(=O)C2C3C=CC(C3)C2C1=O)Nc1ccc2nccnc2c1 (configuration not stated)
Cc1cccc(OCC(=O)N2CCN(C(=O)CCC3CCCC3)CC2)c1
CCOC(=O)C1CCC(CNCc2ccccc2C)CC1 (configuration not stated)
Nc1ncc(S(=O)(=O)Nc2ccc(OC(F)(F)F)cc2)cn1
O=C1OCCC1Sc1nnc2c(n1)[nH]c1ccccc12 (configuration not stated)
CN(CC(=O)Nc1cccc(F)c1)C(=O)c1cc(-c2cccs2)nn1-c1ccccc1

Potency, active:
CC(C)(C)C1=CC(=Nc2ccccc2N)C=C(C(C)(C)C)C1=O 3.98 µM
Cc1ccccc1NCc1ccc(O)c2ncccc12 28.2 µM
Cc1cc(=O)[nH]c2[nH][nH]c(=O)c12 6.31 µM
C/C(=N\Nc1nc2ccccc2[nH]1)c1ccc(N2CCOCC2)cc1 35.5 µM
CCn1ccnc1CN(C)Cc1cn(-c2cccc(C)c2)nc1-c1cccc(F)c1 50.1 µM
O=C(Nc1nnc(S(=O)(=O)N2CCCCCC2)s1)c1ccccc1 28.2 µM
O=C(NC(=S)Nc1ccc(NC(=O)c2ccco2)cc1)c1ccccc1 35.5 µM
CC1CC(C)(C)CC2(C1)NC(=O)N(CC(=O)N1CCN(S(=O)(=O)c3ccc(F)c(F)c3F)CC1)C2=O (configuration not stated) 20 µM
Cn1cnnc1SCC(=O)Nc1sc2c(c1C(N)=O)CCC2 63.1 µM
CCCC(=O)Nc1ccc(NC(=O)c2ccccn2)cn1 3.16 µM

Activity change, negative = inhibition, inactive:
CCC(CC)C(=O)Nc1cc(OC)c(OC)cc1C(=O)O -28.2% [at 11.4 µM]
